Experimental data reported in PubChem BioAssay AID1466 (National Center for Advancing Translational Sciences (NCATS), 2008).
The campaign covered roughly 200,000 compounds. About 10 (0.005%) were called active. Inconclusive means that the source gave no clear call. Such entries were picked first, then a sample of the others. The call rests on the fitted dose curve; in most records, active means well fitted inhibition curve with a large enough effect; inconclusive means small, poorly fitted or top-dose-only effect, or effect the other way, or another doubt; inactive means no such curve, though single readings can be large or run the other way. Where the call is inconclusive, the potency comes from a doubtful curve fit.

Molecular target: Lysosomal alpha-glucosidase (Homo sapiens) (UniProt P10253)
Assay: qHTS Assay for Inhibitors of Human alpha-Glucosidase as a Potential Chaperone Treatment of Pompe Disease;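 on activity change, negative = inhibition: plate controls were uninhibited enzyme wells for no effect and no-enzyme background for full effect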
Details: purified human GAA, 4-MU-alpha-glucoside fluorescence; activity change, negative = inhibition: at 76.9 µM (top of the series) unless noted
Summary of the method: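 Activity normalized between no-enzyme (basal) and enzyme-only wells. Conditions: 4 nM human enzyme, 400 uM fluorogenic substrate, citrate/phosphate pH 5.0 with Tween-20, 20 min room temperature, compounds up to 77 uM.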
Potency means the concentration at half of the fitted maximal effect; tags describe the fitted curve by direction and shape.

Potency, inconclusive:
O=S(=O)(Nc1ccc2c(c1)oc1ccccc12)N1CCCC1 3.16 µM [inhibitor, full curve]
O=C(CSc1nc2[nH]ncc2c(=O)[nH]1)NCCc1ccccc1 3.98 µM [inhibitor, single point]
CCCCN1C(=O)Nc2ccccc2S1(=O)=O 2.51 µM [inhibitor, partial curve, poor fit]
CN(C)c1ccc(/C=N/NC(=O)C(=O)/C=C2\NC3(CCCC3)Cc3ccccc32)cc1 50.1 µM [inhibitor, single point]
Cc1ccc(S(=O)(=O)N2CCC(C(=O)N3Cc4ccccc4C3)CC2)cc1 44.7 µM [inhibitor, single point]
COc1ccc(-c2nc(N3CCOCC3)nc3n[nH]c(N)c23)cc1 39.8 µM [inhibitor, partial curve]
COc1ccc(C(C)=O)cc1CSc1nnc(-c2ccc(Cl)cc2)n1-c1ccccc1 11.2 µM [inhibitor, single point]
O=[N+]([O-])c1ccc(N2CCN(c3ccc(Cl)nn3)CC2)c(Cl)c1 0.178 µM [inhibitor, full curve, poor fit]
COc1ccc(S(=O)(=O)N(C)CC(=O)Nc2ccc(F)cc2)cc1 56.2 µM [inhibitor, single point]
CCN1CCN(CCCNC(=O)c2cc3sccc3n2CC)CC1 50.1 µM [inhibitor, partial curve, poor fit]
COc1ccc(S(=O)(=O)N2CCC(C(=O)NCc3ccccn3)CC2)cc1C 56.2 µM [inhibitor, single point]
COc1ccc2c(CCNC(=O)c3ccc([N+](=O)[O-])cc3)c[nH]c2c1 12.6 µM [inhibitor, full curve, poor fit]
Cc1nc(SCC(=O)Nc2cc(C)on2)c2c(=O)n(C)c(=O)n(C)c2n1 12.6 µM [inhibitor, single point]
CC(C)CC(=O)Nc1sc2c(c1C(=O)O)CCCCC2 1.41 µM [inhibitor, full curve, poor fit]
CC1=NNC(=O)C1C(c1ccccc1)C1C(=O)NN=C1C (stereo unspecified) 12.6 µM [inhibitor, single point]
CNC(=O)/C(C#N)=C/c1c(N(Cc2ccccc2)Cc2ccccc2)nc2c(C)cccn2c1=O 15.8 µM [activator, partial curve]
CC(=O)NC1=NN(C(C)=O)C(c2cccs2)S1 (stereo unspecified) 50.1 µM [inhibitor, single point]
Cc1cccc(C)c1-n1cccc1/C=C1/C(=N)N2C(=NC1=O)SN=C2S(C)(=O)=O 50.1 µM [inhibitor, single point]
Cc1ccc(S(=O)(=O)N2CCN(C(=S)NCCc3ccccc3)CC2)cc1 11.2 µM [inhibitor, single point]
CC1(C)CC(CCC(=O)NC(=S)Nc2ccccc2Cl)C(=O)O1 (stereo unspecified) 25.1 µM [inhibitor, partial curve]
O=C1c2ccccc2N2C(=O)c3ccccc3[C@H]2N1c1ccccc1 15.8 µM [inhibitor, partial curve]
COc1ccc2cc(C(=O)C3CCCN(C(=O)CCc4ccccn4)C3)ccc2c1 (stereo unspecified) 35.5 µM [activator, partial curve, poor fit]
S=C(NNc1ccnc2cc(Cl)ccc12)Nc1ccccc1Cl 4.47 µM [inhibitor, single point]
COc1ccc(C2C(C(=O)c3ccco3)=C(O)C(=O)N2CCOCCO)cc1OC (stereo unspecified) 56.2 µM [inhibitor, single point]
OCCCc1nc2n(n1)C(c1cccs1)C=C(c1ccccc1)N2 (stereo unspecified) 35.5 µM [activator, partial curve]
Cc1ccc2cc3cc(C(=O)NCc4ccco4)oc3nc2c1 3.55 µM [inhibitor, partial curve, poor fit]
Cc1ccccc1NC(=O)c1ccc(COc2ccc3c(C)cc(=O)oc3c2)cc1 25.1 µM [activator, partial curve, poor fit]
O=C(c1ccc(S(=O)(=O)N2CCCCCC2)cc1)N1CCN(c2ccccn2)CC1 3.55 µM [inhibitor, full curve]
O=C1C(=O)N(c2ccccc2)c2ccccc21 1.78 µM [inhibitor, full curve, poor fit]
CCCS(=O)(=O)c1c(S(=O)(=O)CCC)c2cnccn2c1C(=O)c1ccc(Cl)cc1 28.2 µM [inhibitor, single point]
Cc1cccc(/C=C\c2nc3ccccc3c(=O)[nH]2)c1 39.8 µM [activator, single point]
COc1cc(NCCCC(C)N)c2ncccc2c1 (stereo unspecified) 3.55 µM [inhibitor, partial curve]
CC(Nc1nc(N2CCCC2)nc2ccccc12)c1ccccc1 (stereo unspecified) 28.2 µM [activator, single point]
COc1ccc(N2CCn3c2nc2c3c(=O)n(CCc3ccccc3)c(=O)n2C)c(OC)c1 5.01 µM [inhibitor, partial curve]
COc1ccccc1NS(=O)(=O)c1ccc(O)c(C(=O)OCC(=O)c2ccc(Cl)cc2Cl)c1 28.2 µM [inhibitor, single point]
COc1ccc(C2NC(c3ccc(OC)cc3)C([N+](=O)[O-])C(C)(C)C2[N+](=O)[O-])cc1 (stereo unspecified) 50.1 µM [inhibitor, single point]
COC(=O)c1ccc2nc(Nc3nc4ccc(F)cc4s3)sc2c1 12.6 µM [activator, partial curve]
COc1ccc(C2C3=C(CCCC3=O)Nc3nc(C(F)(F)F)nn32)c(OC)c1OC (stereo unspecified) 7.08 µM [inhibitor, single point]
c1ccc(Cn2nnc3c(Nc4ccc5c(c4)OCO5)nc(C4CC4)nc32)cc1 35.5 µM [activator, partial curve]
O=C(CCN1CCN(c2ccccc2)CC1)N/N=C/c1ccccc1O 25.1 µM [activator, partial curve, poor fit]
O=C(Nc1c2ccccc2nc2ccccc12)C(Cl)(Cl)Cl 35.5 µM [activator, partial curve]

Activity change, negative = inhibition, inconclusive:
CCCn1c(=O)c(C(=O)Nc2ncccc2C)c(O)c2ccccc21 15.5% [activator]
Cc1ccc(Cl)cc1N=C(N)N=C(N)N 14.9% [activator]
CN(CC(=O)N1CCCCCC1)S(=O)(=O)c1ccc(Br)s1 -16% [inhibitor]
CCC(=O)N(C)/C=C1\Sc2ccccc2C1=O 16.9% [activator]
O=C(/C=C/c1ccc(S(=O)(=O)NCc2ccco2)cc1)NCc1ccccc1Cl -15.1% [inhibitor]
Cc1cc(NC(=O)c2ccc3c(c2)OCCO3)ccc1NC(=O)c1cc2ccccc2o1 0.433% [activator]
COc1ccc(/C=N/Nc2nc3ccccc3c(=O)[nH]2)cc1 41.5% [activator]
Cn1c(-c2ccc3c(c2)OCO3)cnc1NCc1ccccc1Cl 18.2% [activator]
Cc1ccc(S(=O)(=O)CCC(=O)Nc2ccc(F)cc2)cc1 -15.2% [inhibitor]
CC(C)=CC(=O)Nc1nnc(-c2ccccc2C)s1 15.6% [activator]
O=C(O)CSc1nnc(COc2ccc([N+](=O)[O-])cc2)n1-c1ccccc1 22% [activator]
Cc1ccc(SCCC(=O)NC2CC2)cc1 17.7% [activator]
CCOC(=O)Nc1nnc(/C=C/c2ccc(OC)cc2)s1 16.9% [activator]
Fc1cccc(CSc2ncnc3c2oc2ccccc23)c1 19% [activator]
O=C(O)CCn1c(-c2ccccc2)cc2ccccc21 15.3% [activator]
CC1(C)OC(C)(C)/C(=C/Nc2ccc(O)cc2)C1=O -15.1% [inhibitor]
CCc1ccc(OCC(=O)Nc2cccc3nsnc23)cc1 16.9% [activator]
CN1CCN(S(=O)(=O)c2cc([N+](=O)[O-])ccc2Cl)CC1 18.3% [activator]

Activity change, negative = inhibition, inactive:
O=C(NC(Cc1c[nH]c2ccccc12)C(=O)O)/C(=C/c1ccco1)NC(=O)c1ccccc1 (stereo unspecified) 2.81%
Cc1cc(=O)n(CC(C)C)c(O)c1C#N 0.593%
O=C(NNc1ccccn1)C(=O)NNS(=O)(=O)c1ccc(Cl)cc1 5.33%
Nc1c(C(=O)NCc2ccco2)c2nc3ccccc3nc2n1CCc1ccc(F)cc1 -5.65%
O=C(CCCN1C(=O)c2cccc3cccc(c23)C1=O)N1CCN(c2ccccn2)CC1 5.3%
CCN(CC)P(=O)(Nc1ccc(SC(F)F)cc1)c1ccc(N(C)C)cc1NC(=O)c1ccco1 (stereo unspecified) -15.2%
O=C1C(Nc2ccccc2)=C(N2CCCCC2)C(=O)c2ccccc21 6.11%
